Results: PMC4336329 (PLoS ONE, 2015)
Out of some 310,000 compounds screened, about 14,000 (4.5%) showed an effect of 50% or more. Effects have a minus sign here. The list shows a part of the results.

Each compound was assayed against human ether-à-go-go-related gene (hERG) potassium channel (human, UniProt Q12809) (assay: primary screen, population patch clamp on CHO cells stably expressing hERG).
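Also: peak tail current of the secondary pulse compared with the same well before compound.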

human ether-à-go-go-related gene (hERG) potassium channel, sequence (Q12809 whole entry, looked up): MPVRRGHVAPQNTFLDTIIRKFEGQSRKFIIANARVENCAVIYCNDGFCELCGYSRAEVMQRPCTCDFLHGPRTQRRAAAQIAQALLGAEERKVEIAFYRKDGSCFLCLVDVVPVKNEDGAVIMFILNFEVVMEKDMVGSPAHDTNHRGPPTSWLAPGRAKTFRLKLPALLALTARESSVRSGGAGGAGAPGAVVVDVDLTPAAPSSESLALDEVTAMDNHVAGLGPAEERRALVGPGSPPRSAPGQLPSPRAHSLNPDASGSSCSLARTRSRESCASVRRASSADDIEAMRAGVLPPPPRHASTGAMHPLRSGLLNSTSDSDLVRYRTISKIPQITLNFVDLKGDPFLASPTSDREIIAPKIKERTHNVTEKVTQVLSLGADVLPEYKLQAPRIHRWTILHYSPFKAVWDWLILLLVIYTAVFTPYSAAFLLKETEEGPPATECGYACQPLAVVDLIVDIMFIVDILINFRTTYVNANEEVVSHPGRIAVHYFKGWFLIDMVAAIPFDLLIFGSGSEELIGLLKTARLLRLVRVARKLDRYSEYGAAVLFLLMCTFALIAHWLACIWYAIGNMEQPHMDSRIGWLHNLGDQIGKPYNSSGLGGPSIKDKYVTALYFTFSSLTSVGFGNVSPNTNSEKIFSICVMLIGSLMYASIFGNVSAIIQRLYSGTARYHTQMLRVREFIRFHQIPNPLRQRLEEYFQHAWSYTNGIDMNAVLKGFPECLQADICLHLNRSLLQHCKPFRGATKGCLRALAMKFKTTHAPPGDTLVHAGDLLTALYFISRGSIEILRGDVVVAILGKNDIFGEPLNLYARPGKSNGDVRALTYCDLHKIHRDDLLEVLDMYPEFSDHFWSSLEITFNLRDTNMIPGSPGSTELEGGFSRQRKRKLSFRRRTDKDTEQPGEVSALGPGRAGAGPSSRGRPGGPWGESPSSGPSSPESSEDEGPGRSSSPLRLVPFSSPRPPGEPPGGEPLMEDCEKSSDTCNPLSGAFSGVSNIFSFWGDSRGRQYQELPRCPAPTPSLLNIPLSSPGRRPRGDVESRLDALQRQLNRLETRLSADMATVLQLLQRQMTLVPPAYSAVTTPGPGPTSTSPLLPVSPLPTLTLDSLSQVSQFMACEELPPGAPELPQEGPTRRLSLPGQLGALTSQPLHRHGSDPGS

Row | Structure (SMILES) | hERG current change (%, negative = inhibition) at 10uM [%]
1 | COc1cccc(CN(CC2CCCO2)S(=O)(=O)c2ccc(S(=O)(=O)NCC3CCCO3)cc2)c1OC (stereo not drawn) | -11.1
2 | COc1ccccc1CNC(=O)CCNS(=O)(=O)c1cccc2nsnc12 | -3.21
3 | O=C(Nc1ccc(F)cc1)c1ccc(C(=O)N2CCOCC2)cc1 | 6.53
4 | O=C(CCc1ccccc1)NNc1cc(N2CCCCC2)nc(N2CCCCC2)n1 | 15.2
5 | Cc1cccnc1NC(=O)CN1C(=O)COc2ccc(Cl)cc21 | 19.2
6 | CC(=O)Nc1cccc(/C(C)=N/NC(=O)c2ccc(Cl)cc2Cl)c1 | 29.2
7 | COc1ccc(/C=C2\SC(=S)N(CC(=O)OCC(=O)Nc3ccc(C)cc3Cl)C2=O)cc1 | 12.3
8 | Cn1nccc1C(=O)NC1CCCc2c1cnn2-c1cc(F)cc(F)c1 (stereo not drawn) | -45.2
9 | CCOC(=O)N1CCC(NC(=O)C2CCCN(c3nc4ccccc4o3)C2)CC1 (stereo not drawn) | -28.4
10 | CC(CC(=O)NC1CCCC1)c1ccccc1 (stereo not drawn) | -3.12
11 | CCOc1cccc(CN2CCC(n3nccc3NC(=O)C3CCCC3)CC2)c1 | -55.3
12 | CSc1ccc(/C=C(/NC(=O)c2ccc(C)cc2)C(=O)Nc2cccc(F)c2)cc1 | 6.66
13 | C/C(=N/NS(=O)(=O)c1ccccc1)c1ccc(NC(=O)C(F)(F)F)cc1 | 1.89
14 | CCOc1cc(C(=O)N2CCN(c3ccc(C(C)=O)cc3)CC2)cc(OCC)c1OCC | -18.1
15 | O=C(N=C1SC2CS(=O)(=O)CC2N1Cc1ccc(Cl)cc1)C1CC1 (stereo not drawn) | 11.5
16 | CC(=O)NC1N=C(C)N(c2ccccc2)C1=O (stereo not drawn) | 7.13
17 | COC(=O)c1cc(S(=O)(=O)NCC2CCN(Cc3ccc(Cl)cc3)CC2)c[nH]1 | -71.2
18 | COc1ccc(CCNC(=O)C2(C)CCC(=O)N2CCC(C)C)cc1OC (stereo not drawn) | -8.53
19 | Cc1cc(C)c2c(c1)C(=O)/C(=C/c1ccc(C(=O)O)cc1)CC2 | 4.85
20 | O=C(CCn1nnc2ccccc21)N/N=C\Cc1ccccc1 | -5.07
21 | CCCCOc1ccc(C(NC(=O)OCC)NC(=O)OCC)cc1 | 6.73
22 | Cc1ccc(CNC(=S)NCc2ccncc2)cc1 | -35.9
23 | O=C(NCc1ccccc1)c1nc(S(=O)(=O)Cc2ccccc2)ncc1Cl | 9.46

Row | Structure (SMILES) | hERG current change (%, negative = inhibition) at 10uM [%]
24 | COc1ccc(OC)c(C(c2nnnn2CCc2ccccc2)N2CCN(c3ccccc3)CC2)c1 (stereo not drawn) | -16.7
25 | Cc1ccc(CN2CCN(CCC(C)C)C(CCO)C2)s1 (stereo not drawn) | -29.5
26 | CCOc1ccccc1C(=O)NCCc1cnc[nH]1 | 18.8
27 | Cc1ccc(Cl)cc1NC(=O)COC(=O)CC1CCCCC1 | 12
28 | Cc1nnc(SCC(=O)Nc2ncc(Cl)cc2Cl)n1Cc1ccccc1 | -15.6
29 | COc1ccc(NC(=O)CC2C(=O)N(c3cccc(OC)c3)C(=O)N2C(C)C)cc1 (stereo not drawn) | -9.32
30 | Cc1nnc(SCC(=O)Nc2ccc3c(c2)OCCO3)n1CC1CCCO1 (stereo not drawn) | -3.78
31 | O=C(O)CCCN1C(=O)/C(=C/c2ccc(-c3nc4ccccc4s3)o2)SC1=S | 23
32 | COC(=O)c1cccc(S(=O)(=O)N2CCCCC2)c1 | -0.44
33 | COc1cccc(C2=CC(c3cccc(OC)c3OC(F)F)n3nnnc3N2)c1 (stereo not drawn) | 9.22
34 | CCOCCOC(=O)CCSc1n[nH]c(=O)[nH]c1=O | -1.23
35 | Cc1ccc2c(C)nc(N/C(N)=N/S(=O)(=O)c3ccccc3)nc2c1 | 21.8
36 | Cc1ccc(C(=O)Nc2ccccn2)cc1S(=O)(=O)N1CCOCC1 | -5.72
37 | O=C(c1cnc(-c2ccc(Cl)cc2)s1)c1ccc(Cl)cc1Cl | 5.71
38 | CCCC(=O)Nc1cc(-c2nc3ncccc3o2)ccc1Cl | 10.1
39 | CCC(C)NC(=O)Cn1c(-c2ccccc2)cc(C(C)=O)c1C (stereo not drawn) | 8.5
40 | Cc1cc(-c2ccc(C(C)C)c(S(=O)(=O)N3CCN(c4ccccc4)CC3)c2)on1 | -11.8
41 | COc1ccc(CC(=O)OCC(=O)NCc2ccccc2Cl)cc1OC | 0.24
42 | O=C(c1ccc(S(=O)(=O)Nc2cccc(C(F)(F)F)c2)cc1)N1CCC1 | 7.99
43 | COc1cc2c(cc1OC)C(C)N(S(=O)(=O)c1ccc(C)cc1)CC2 (stereo not drawn) | -15
44 | CCc1nc(SCc2cccnc2)c2c(=O)n(C)c(=O)n(C)c2n1 | -10.7
45 | CCOC(=O)c1c(NC(=O)COC(=O)c2ccc(Cl)nc2)sc(C(=O)N(C)C)c1C | -11.7
46 | Cc1scc2c1N(C(=O)CN1CCN(C)CC1)c1ccccc1NC2=O | 12.7

Row | Structure (SMILES) | hERG current change (%, negative = inhibition) at 10uM [%]
47 | COc1cc(C=O)ccc1OCCCOc1ccccc1C(=O)O | 11.2
48 | CCOC(=O)C1=C(c2ccccc2)NC(=S)NC1c1ccc(Cl)c([N+](=O)[O-])c1 (stereo not drawn) | 9.64
49 | COc1ccc(N2CCN(C(=O)Nc3ccccc3C)CC2)cc1 | -6
50 | O=C(c1ccc(N2CCCCS2(=O)=O)cc1)N1CCN(c2ccccc2F)CC1 | -8.75
51 | CC1CCN(c2nc3ccc(C(=O)NCCCN4CCCCC4C)cc3s2)CC1 (stereo not drawn) | -59
52 | COc1ccc(S(=O)(=O)NC(C)C)cc1C(=O)N1CCOCC1 | -1.28
53 | CCCCOC(=O)c1ccc(NC(=O)C(CCS(C)(=O)=O)NC(C)=O)cc1 (stereo not drawn) | -22.4
54 | COc1ccc(-c2cc(NCc3ccccn3)n3ncnc3n2)cc1 | -23.5
55 | C#CCNC(=O)C1=C[C@H](C)C[C@H](OCc2ccc(CO)cc2)O1 | 8.34
56 | CC(=O)Oc1ccc(NC(=O)Cc2ccccc2)cc1 | 24.9
57 | CCn1c(/C(C#N)=N/O)nc2ccccc21 | -9.72
58 | CC(O)[C@H]1CNC(=O)C(=O)N1CC(C)(C)C (stereo partly drawn) | -0.215
59 | O=C(N=Nc1c(O)[nH]c2ccc([N+](=O)[O-])cc12)c1ccccc1[N+](=O)[O-] | -6.97
60 | O=C(COc1ccc(/C=N/NC(=O)C(=O)N2CCCCCC2)cc1)Nc1ccccc1Cl | -15.1
61 | O=C(CN(Cc1ccccc1Cl)C(=O)CN1C(=O)CSc2ccccc21)NC1CC1 | -46
62 | CCOc1ccccc1CNn1cnnc1 | 2.62
63 | O=C(N/N=C/c1cc(Br)cs1)c1ccc2c(c1)OCCO2 | 10.2
64 | CNC(=O)c1c[nH]c2ccc(S(=O)(=O)Nc3ccccc3F)cc2c1=O | 20.9
65 | C1=Cc2ccccc2Nc2ccccc21 | 14
66 | O=C(O)c1cc2cc(Oc3ccccc3)ccc2[nH]1 | 9.48
67 | C=CCNC(=S)Nc1ccc(Cl)cc1 | 4.77
68 | CC(C)CC(NC(=O)c1ccccc1)C(=O)OCC(=O)Nc1ccc(S(N)(=O)=O)cc1 (stereo not drawn) | 6.22
69 | CC(=O)N(C)c1ccc(N=Cc2c(O)ccc3ccccc23)cc1 | -20.9

Row | Structure (SMILES) | hERG current change (%, negative = inhibition) at 10uM [%]
70 | CCCCOc1ccc(C(=O)Nc2ccc(S(=O)(=O)Nc3onc(C)c3C)cc2)cc1 | 19
71 | CCCc1c(O)nc(SCC(=O)NCCc2ccc(OC)c(OC)c2)[nH]c1=O | 7.21
72 | Cc1nnc(SCC(=O)Nc2nnc(-c3ccccc3)o2)s1 | 10.8
73 | Cc1ccccc1CN1CCN(C(=O)c2cccc(F)c2)CC1 | -6.5
74 | O=C(Nc1cccs1)Nc1c(F)cc(F)cc1Br | 19.6
75 | Cc1ccc(-c2c(C(=O)O)c(C(=O)O)c3n2CCC3)cc1 | 23
76 | Nc1ccccc1SCC(=O)N1CCc2ccccc21 | -17
77 | CCc1noc(C)c1C(=O)OCC(=O)N(C)c1c(N)n(Cc2ccccc2)c(=O)[nH]c1=O | -15.5
78 | CN(c1ccccc1C(=O)Nc1ccc(F)c(F)c1)S(C)(=O)=O | 12.6
79 | O=C(COC(=O)CNS(=O)(=O)c1ccc(Br)cc1Cl)NC1CCCC1 | 5.71
80 | Cc1ccnc(NC(=O)c2ccc3c(c2)OCO3)c1 | -0.679
81 | CCC(=O)c1cn(CC(=O)Nc2cccc(C)c2C)c2ccccc12 | -9.48
82 | Nc1nonc1-n1nnc(C(=O)N/N=C/c2cccc(O)c2)c1CN1CCCC1 | 7.84
83 | COc1cc(C(=O)NNC(=O)c2ccco2)cc(OC)c1OC | 22.2
84 | C/C(=N\NC(=O)COc1cccc2ccccc12)c1cccs1 | 8.83
85 | COCCN(CC(=O)NCC1CCCO1)C(=O)CCC(=O)Nc1cc(C)on1 (stereo not drawn) | 14.5
86 | COC(=O)c1c(NC(=O)CC2Sc3ccc(C(F)(F)F)cc3NC2=O)sc(C)c1C (stereo not drawn) | -4.66
87 | Cc1ccnn1Cc1cc(C(=O)O)c2ccccc2n1 | 38.3
88 | CC(Cc1ccccc1)NC(=O)C1(c2ccccc2)CCOCC1 (stereo not drawn) | -4.37
89 | Cn1c(=O)c2c(ncn2CC(=O)N2CCN(c3ccccc3F)CC2)n(C)c1=O | -12.4
90 | Cc1cc(-n2c(SCC(=O)NCc3cccs3)nc3n[nH]c(C)c3c2=N)ccc1Cl | 3.67
